Results published in the supplement of paper PMC11417369.
± gives the standard deviation of the averaged measurements. Some of the results follow.

What follows are sequences tested on PfAP2-LT AP2 domain (GST-tagged) (assay: gcPBM binding intensity (ln(normalized median fluorescence intensity)); higher = stronger DNA binding).
Procedure, shortened: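 In this array assay, P. falciparum DNA-binding domains with a GST tag, expressed in E. coli, were applied for 1 h to primer-extended double-stranded 36-bp intergenic genomic probes and negative controls on an Agilent 4 × 180k array. Bound protein was visualised with Alexa488 anti-GST antibody at 488 nm. Binding intensity is the highest Masliner-normalised natural-log median intensity across replicate spots of either probe orientation.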

Row | Sequence | gcPBM binding intensity (ln)
1 | TATCTCATTTGGAATTGTACTAACAGATACTTGTTT [XGTACX_site2672] | 8.77 ± 0.5
2 | ATTCAATAATTGTTTTTTTTCTTTTTGTTTTTGTTT [GTGCAC_negctrl_site563] | 8.64 ± 0.56
3 | TATACGCATATTTTTACACACATATTTTTTCATATA [CACACA_site2546] | 9.11 ± 0.42
4 | TATATATAATATATATGTACATATGTATAATATTTA [XGTACX_site4400] | 8.71 ± 0.45
5 | TTATGAAAAAAATACTGTACACAATATGACGAAAGT [XGTACX_site2283] | 8.98 ± 0.38
6 | TTTTAAATAAATCATGCATGCACATATAATTATATT [TGCATGCA_site151] | 9.01 ± 0.35
7 | CATATTAGGACAAAGTGTACATATATATATATATAT [XGTACX_site1172] | 9.72 ± 0.2
8 | AATATTACGTCTGGACGTACAAATCTTTTTCGTGTC [XGTACX_site6644] | 8.85 ± 0.47
9 | AAATTATTGAAATACGCATGTGTTTTTTTTTTTTTT [TGCATGCA_site391] | 8.71 ± 0.38
10 | TTTTACTAGATATATACACACATTATACCTATAGAT [CACACA_site7530] | 9.04 ± 0.43
11 | ATATAAAGGTTTATTAGTACACATTAGAATACTTTT [XGTACX_site4492] | 8.62 ± 0.52
12 | ACATTTTTTTTTTTTTTTTTTTTCTTACATCATGCA [CACACA_negctrl_site1413] | 8.69 ± 0.57
13 | GAAATATTTTGTTGTGCATGCGACATTAAATAAAAA [TGCATGCA_site331] | 8.63 ± 0.45
14 | TTTTTATTTTTAGTAGTGCATTAATCATATGGTCAT [GTGCAC_site9879] | 8.72 ± 0.42
15 | TAAATAAATCCACATACACACACGACGCTAGTATAT [CACACA_site1060] | 9.34 ± 0.33
16 | AATATTTTATTTTTTCTCATTAAAAATTTTTTTTTT [CACACA_negctrl_site364] | 8.36 ± 0.54
17 | GATAGATAATATTTTAGTACATAAACAATTAAATAT [XGTACX_site4125] | 8.73 ± 0.48
18 | AAAATACATATATATATATATAATATTGTTGTTAAA [GTGCAC_negctrl_site519] | 8.79 ± 0.32
19 | CATATTTACATTAAGTGTACTTATGAATATATATAC [XGTACX_site7962] | 8.86 ± 0.46
20 | ATAATATTTTATAATTGTACTTTTTATAAATATAAA [XGTACX_site1940] | 8.29 ± 0.47
21 | ATATTTTTTTTCATTTGTACACATAAAATTATATAG [XGTACX_site8260] | 8.72 ± 0.49
22 | ATTATTCGTTTTAAATGTACTCATATAAACGATAAA [XGTACX_site7866] | 8.33 ± 0.4

Row | Sequence | gcPBM binding intensity (ln)
23 | CAAAAGAAGGTAAACACACACACACCCATACAAAAA [CACACA_site3765] | 10.1 ± 0.43
24 | TTTTATAATTTCAAAGGATTCTTTAATATTATAAAT [CACACA_negctrl_site1812] | 8.12 ± 0.39
25 | AAAAAAAAAAAAAAAAGTACACACTTTTGCCTACAT [XGTACX_site6583] | 8.98 ± 0.49
26 | AATAATTGCTAAAGGTGTACAATACGTATATAAGAA [XGTACX_site4910] | 9.12 ± 0.46
27 | TACAGAAATTTATATATATATATATATATATATATA [XGTACX_negctrl_site209] | 9.8 ± 0.39
28 | AAATCAAAAACGTTTACACACATTCTTATTTAAATA [CACACA_site790] | 8.78 ± 0.38
29 | TGAGACATGAATGCAAGTACAAAAAGGAGAACAAAA [XGTACX_site6183] | 9.04 ± 0.59
30 | TACATATATTTTTTATGTACTTACTTGTGTGTTTAT [XGTACX_site5126] | 9.04 ± 0.49
31 | AAATGTTGAAATGATACACACATATATATATATATA [CACACA_site2517] | 9.95 ± 0.46
32 | TAAATTCTGTTTAAAAGTACAAATAATATTGTGCCT [XGTACX_site7805] | 8.47 ± 0.47
33 | TTTATTAAAACAAAATGTACACACATATAATTTAAT [XGTACX_site1637] | 8.73 ± 0.38
34 | TTAATCTTCATAAAATGTACAGAAGATTGAATATTC [XGTACX_site6213] | 8.47 ± 0.3
35 | TGAAAGTGTATTAAAGTGCATATTATTTTATCTACC [GTGCAC_site9969] | 8.73 ± 0.42
36 | TTAATAACAAAATAAACACACATATATAAATACACA [CACACA_site6849] | 9.19 ± 0.4
37 | TTATATTTTTTTTGTAGTACATTATAGAATACACAC [XGTACX_site969] | 8.91 ± 0.25
38 | AATTCATTATATATACGTACATATTTCTGTATAAAA [XGTACX_site6371] | 8.62 ± 0.39
39 | ATTTATTTCACAAAAACATGCAGTTTGAAATTGCCA [TGCATGCA_site910] | 8.48 ± 0.45
40 | GATTATTTTATAAGTACACACATTTATATATAATAA [CACACA_site2573] | 8.65 ± 0.35
41 | GCATAAATTATCATAACATAAATATAAAAATATAAT [GTGCAC_negctrl_site55] | 8.85 ± 0.38
42 | AAAAAAAAAAGACACACACACACATAAATATAAATA [CACACA_site6215] | 10.2 ± 0.42
43 | TTATATAGGTCATTCATAAATACAGTTTTTAAAAAA [CACACA_negctrl_site1340] | 8.29 ± 0.42
44 | ATAATACAATTTATAACACACACACTATAATACATA [CACACA_site8338] | 9.56 ± 0.2

Row | Sequence | gcPBM binding intensity (ln)
45 | AAATAATAAATTATAACACACATATATATATATATA [CACACA_site4045] | 9.615 ± 0.021
46 | TTCATGCTTATATGTGCACACACAAAAGAAAAGAAA [CACACA_site1656] | 9.44 ± 0.36
47 | GGAAAGACAGTTCACAGTACCCAGTAACTCTACGGA [XGTACX_site2009] | 9 ± 0.37
48 | TTTCACCATATAAACGTGCACACTACAAAAATATAT [CACACA_site2547] | 8.86 ± 0.38
49 | AAATAATGAAACAAAGTGCATAAAAATATACATATA [GTGCAC_site9467] | 8.92 ± 0.52
50 | ATGGATTATACGTGCACACATATATACCAATAAATA [CACACA_site4524] | 9.25 ± 0.42
51 | CATTAAAATATGAGATGTACACAATATCTATTATAT [XGTACX_site4979] | 8.79 ± 0.4
52 | ATTTAAATATCTTCTTTTTTTTTTTTTTTTGAAATT [CACACA_negctrl_site1074] | 8.15 ± 0.64
53 | GTGTATAATATAGGATGTACAATAAAACACCGATTG [XGTACX_site7429] | 9.07 ± 0.42
54 | GAGCGTAATCTATTTGCACACTTATTTGTTCTTAAA [CACACA_site673] | 9.09 ± 0.38
55 | TTGTTTATCAACAGCACACACAACAACAACAACAAC [CACACA_site458] | 9.11 ± 0.32
56 | ATAAAAACATAAACAAATCAAAAAAAAAAAAAAAAA [CACACA_negctrl_site13] | 8.59 ± 0.46
57 | TGTGCACATAATTAGTGTACATTTTTTATTTAGACA [XGTACX_site317] | 8.59 ± 0.44
58 | AATGGCAAAATAGGCACACACACATATACATATATA [CACACA_site1058] | 9.72 ± 0.47
59 | AATTATATTTGAAATACACACATAAAAATCATATAG [CACACA_site3468] | 8.98 ± 0.3
60 | AGATTTAAATATCATACACACTTTATATATAATACA [CACACA_site4688] | 8.68 ± 0.45
61 | ATTAGAGAATCGTAACCCAAATGAACATACTTAAAT [GTGCAC_negctrl_site363] | 8.87 ± 0.39
62 | CTTATTGATTTAAAAAGTACATATATGTATATACAC [XGTACX_site4072] | 8.62 ± 0.48
63 | AAAAAAAAAAAAAATACACACATATAAATATAAATA [CACACA_site6189] | 9.04 ± 0.47
64 | AATATATAAACCGAACGTACATATTTTTTATACACC [XGTACX_site2121] | 8.89 ± 0.38
65 | TGTTATATGTTCAAATGTACAAATCATATACATGTT [XGTACX_site3192] | 8.76 ± 0.38
66 | GTGTACAGACACAAAATATATACATATATATATATA [CACACA_negctrl_site1796] | 9.5 ± 0.11

Row | Sequence | gcPBM binding intensity (ln)
67 | TATTTTCATAATAAAAAAAAATAATTTAAAAAATAT [CACACA_negctrl_site748] | 8.12 ± 0.49
68 | ATTATTTTCTCATAGAGTACAAATGTTGTTGTTGTC [XGTACX_site1062] | 8.95 ± 0.45
69 | TTATTTTATTTTTATACACACATGTTTTAATGTTCA [CACACA_site249] | 9.06 ± 0.38
70 | AAAAGATATTTGAATATACACACGATTTAAATTTAA [CACACA_site3865] | 8.78 ± 0.39
71 | TATATATACACACACACATGCATGCCGATATATATA [TGCATGCA_site29] | 9.76 ± 0.11
72 | AATAAAAATAGGAAATGTACACATATATATATATAT [XGTACX_site1853] | 9.72 ± 0.18
73 | AAAGATTTAATCTATACATGCAAATATATAGAAAAG [TGCATGCA_site373] | 8.67 ± 0.35
74 | AGATGCCAAGTATAAAGTACATATCAAAATGTATAT [XGTACX_site456] | 8.96 ± 0.42
75 | GAACAAAATTTTATATGTACATAATATTTATATATA [XGTACX_site3667] | 8.64 ± 0.37
76 | AAAATTAATGTTGGTTGTACAAAAATTAAATATGGT [XGTACX_site66] | 9.11 ± 0.46
77 | AGGAGGATAGTTCACAGTACCCAGTAACTCTACGAG [XGTACX_site2008] | 8.8 ± 0.68
78 | GTACAAAGGACTATACATAGAAAAATATATATATAT [XGTACX_negctrl_site164] | 9.32 ± 0.21
79 | AAAACTTTTAAAATTTTGTATTCATTCCTTCAACAA [GTGCAC_negctrl_site697] | 8.41 ± 0.5
80 | TTTATAATTCCATAATGTACAAATAAAATAAAAAAT [XGTACX_site663] | 8.62 ± 0.43
81 | TATATTCAAAATGGTACACACAATATTTAATTGTGC [CACACA_site2631] | 8.89 ± 0.42
82 | TGACATATAAAATATTCACACACAAGTTATAGTTCT [CACACA_site9209] | 9.13 ± 0.47
83 | ACATTTTCTTATAAATGTACATATATATTATTATAT [XGTACX_site4404] | 8.82 ± 0.49
84 | GTACAAAATTGACAAGTGCAAAAATTAAAAGCAAGA [GTGCAC_site9838] | 9.13 ± 0.52
85 | AAAGTATATAGGATACGTACATACATAAATAAATAA [XGTACX_site8216] | 9.04 ± 0.42
86 | ATATATATATAAATATGTACATATATTTATTTCTTT [XGTACX_site3784] | 8.8 ± 0.46
87 | GTGTGAGCACATTCGGGAGAGTTTTTTTTTTTTTTT [CACACA_negctrl_site1776] | 8.85 ± 0.37
